The supplement of paper PMC8728848
Some of the results follow.

Columns and labels:
Assay in all cases: glycan array binding signal (z-score within array); higher = stronger binding
Conditions in all cases: glycan notation: IUPAC condensed, linker removed
[1] = target: Fuc(a1-2)[GalNAc(a1-3)]Gal(b1-3)GlcNAc(b1-3)GalNAc
Procedure, shortened: (§1)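 The binding signal is a Z-score computed within each array and averaged over linkers. Arrays of the same protein sequence at different concentrations or buffers were also averaged together. Data originate from 3228 arrays in the Consortium for Functional Glycomics database, kept only where the protein sequence was available.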

[2] = target: Fuc(a1-2)[GalNAc(a1-3)]Gal(b1-3)GlcNAc(b1-6)GalNAc
Procedure, shortened: as §1

[3] = target: Fuc(a1-2)[GalNAc(a1-3)]Gal(b1-4)Glc
Procedure, shortened: as §1

[4] = target: Fuc(a1-2)[GalNAc(a1-3)]Gal(b1-4)GlcNAc
Procedure, shortened: as §1

[5] = target: Fuc(a1-2)[GalNAc(a1-3)]Gal(b1-4)GlcNAc(b1-2)Man
Procedure, shortened: as §1

[6] = target: Fuc(a1-2)[GalNAc(a1-3)]Gal(b1-4)GlcNAc(b1-2)Man(a1-3)[Fuc(a1-2)[GalNAc(a1-3)]Gal(b1-4)GlcNAc(b1-2)Man(a1-6)]Man(b1-4)GlcNAc(b1-4)GlcNAc
Procedure, shortened: as §1

[7] = target: Fuc(a1-2)[GalNAc(a1-3)]Gal(b1-4)GlcNAc(b1-2)Man(a1-3)[Fuc(a1-2)[GalNAc(a1-3)]Gal(b1-4)GlcNAc(b1-2)Man(a1-6)]Man(b1-4)GlcNAc(b1-4)[Fuc(a1-6)]GlcNAc
Procedure, shortened: as §1

[8] = target: Fuc(a1-2)[GalNAc(a1-3)]Gal(b1-4)GlcNAc(b1-3)Gal(b1-4)GlcNAc
Procedure, shortened: as §1

[9] = target: Fuc(a1-2)[GalNAc(a1-3)]Gal(b1-4)GlcNAc(b1-3)Gal(b1-4)GlcNAc(b1-3)Gal(b1-4)GlcNAc
Procedure, shortened: as §1

[10] = target: Fuc(a1-2)[GalNAc(a1-3)]Gal(b1-4)GlcNAc(b1-3)GalNAc
Procedure, shortened: as §1

[11] = target: Fuc(a1-2)[GalNAc(a1-3)]Gal(b1-4)GlcNAc(b1-3)[Fuc(a1-2)[GalNAc(a1-3)]Gal(b1-4)GlcNAc(b1-6)]GalNAc
Procedure, shortened: as §1

[12] = target: Fuc(a1-2)[GalNAc(a1-3)]Gal(b1-4)GlcNAc(b1-6)GalNAc
Procedure, shortened: as §1

[13] = target: Fuc(a1-2)[GalNAc(a1-3)]Gal(b1-4)[Fuc(a1-3)]GlcNAc
Procedure, shortened: as §1

[14] = target: Fuc(a1-2)[GalNAc(a1-3)]Gal(b1-4)[Fuc(a1-3)]GlcNAc(b1-3)GalNAc
Procedure, shortened: as §1

[15] = target: Fuc(a1-2)[GalNAc(a1-4)]Gal(b1-4)GlcNAc
Procedure, shortened: as §1

[16] = target: Fuc(a1-2)[GalNAc(b1-3)]Gal
Procedure, shortened: as §1

[17] = target: Fuc(a1-3)GlcNAc
Procedure, shortened: as §1

[18] = target: Fuc(a1-3)[Gal(b1-4)]Glc6S
Procedure, shortened: as §1

[19] = target: Fuc(a1-3)[Gal(b1-4)]GlcNAc
Procedure, shortened: as §1

[20] = target: Fuc(a1-3)[Gal(b1-4)]GlcNAc(b1-2)Man
Procedure, shortened: as §1

[21] = target: Fuc(a1-3)[Gal(b1-4)]GlcNAc(b1-2)Man(a1-3)[Fuc(a1-3)[Gal(b1-4)]GlcNAc(b1-2)Man(a1-6)]Man(b1-4)GlcNAc(b1-4)GlcNAc
Procedure, shortened: as §1

[22] = target: Fuc(a1-3)[Gal(b1-4)]GlcNAc(b1-2)Man(a1-3)[Fuc(a1-3)[Gal(b1-4)]GlcNAc(b1-2)Man(a1-6)]Man(b1-4)GlcNAc(b1-4)[Fuc(a1-6)]GlcNAc
Procedure, shortened: as §1

[23] = target: Fuc(a1-3)[Gal(b1-4)]GlcNAc(b1-3)Gal(b1-3)[Fuc(a1-4)]GlcNAc
Procedure, shortened: as §1

[24] = target: Fuc(a1-3)[Gal(b1-4)]GlcNAc(b1-3)Gal(b1-4)[Fuc(a1-3)]GlcNAc
Procedure, shortened: as §1

[25] = target: Fuc(a1-3)[Gal(b1-4)]GlcNAc(b1-3)Gal(b1-4)[Fuc(a1-3)]GlcNAc(b1-3)Gal(b1-4)[Fuc(a1-3)]GlcNAc
Procedure, shortened: as §1

[26] = target: Fuc(a1-3)[Gal(b1-4)]GlcNAc(b1-3)GalNAc
Procedure, shortened: as §1

[27] = target: Fuc(a1-3)[Gal(b1-4)]GlcNAc(b1-6)GalNAc
Procedure, shortened: as §1

[28] = target: Fuc(a1-3)[Gal(b1-4)]GlcNAc(b1-6)[Gal(b1-3)GlcNAc(b1-3)]Gal(b1-4)Glc
Procedure, shortened: as §1

[29] = target: Fuc(a1-3)[Gal(b1-4)]GlcNAc6S
Procedure, shortened: as §1

[30] = target: Fuc(a1-3)[Gal3S(b1-4)]Glc
Procedure, shortened: as §1

[31] = target: Fuc(a1-3)[Gal3S(b1-4)]GlcNAc
Procedure, shortened: as §1

[32] = target: Fuc(a1-3)[Gal3S(b1-4)]GlcNAc6S
Procedure, shortened: as §1

[33] = target: Fuc(a1-3)[GalNAc(b1-4)]GlcNAc
Procedure, shortened: as §1

[34] = target: Fuc(a1-3)[GalNAc(b1-4)]GlcNAc6S
Procedure, shortened: as §1

[35] = target: Fuc(a1-4)GlcNAc
Procedure, shortened: as §1

[36] = target: Fuc(b1-3)GlcNAc
Procedure, shortened: as §1

[37] = target: Gal(a1-2)Gal
Procedure, shortened: as §1

B1: SP16664B-bot-474-25-474 (Bacteroides ovatus) (protein)
chain: CEEDIEIGNKIDESSYLASTQLSGLLLDENTNKNSSVIELRNNEYSTNVVFRLSKLPQKGVDVQIAVEESYAAIYNTIHETDFEVFPAANVKIANNGTFVLAPDDKVTPSVKVTLTAFDGMEEDKTYIVPLTVTSSTEGVTFTETSKHMVLLVQDYRNKPNTNKGEDAVQTVLYFEVNDTNPLNALEFLTESGKYFFDHIVLFAANINWDPEKQRVYLANNENVQFLLDNNDKYLQPLRKAGMKIIISILGNHDEAGVAQLSDMGAREFARELAAYCRAYNLDGVAFDDEYSNSPDLSNPWLASPSAYAGSRLMYECKAVMPEKIVSLYNLGNMYSSSLQVIDGIEPGQYCDYAVADYGGAAGPGTGMTLKQCAGMSIELRRGSGNSSESTARSRKEAGYGYYMFFALDPSLYGSQVYRCQSVCKGLYDETLVYPSYYYKKNSTEREAIN
glycan array binding signal (z-score) [1]: 0.153
glycan array binding signal (z-score) [2]: -0.622
glycan array binding signal (z-score) [3]: -0.329
glycan array binding signal (z-score) [4]: -0.242
glycan array binding signal (z-score) [5]: -0.388
glycan array binding signal (z-score) [6]: 0.635
glycan array binding signal (z-score) [7]: 1.16
glycan array binding signal (z-score) [8]: -0.402
glycan array binding signal (z-score) [9]: -0.018
glycan array binding signal (z-score) [10]: -0.33
glycan array binding signal (z-score) [11]: -0.247
glycan array binding signal (z-score) [12]: -0.035
glycan array binding signal (z-score) [13]: -0.073
glycan array binding signal (z-score) [14]: 0.228
glycan array binding signal (z-score) [15]: -0.449
glycan array binding signal (z-score) [16]: -0.453
glycan array binding signal (z-score) [17]: -0.354
glycan array binding signal (z-score) [18]: -0.329
glycan array binding signal (z-score) [19]: -0.204
glycan array binding signal (z-score) [20]: 0.2
glycan array binding signal (z-score) [21]: 2.22
glycan array binding signal (z-score) [22]: 0.464
glycan array binding signal (z-score) [23]: 0.124
glycan array binding signal (z-score) [24]: 0.626
glycan array binding signal (z-score) [25]: 0.096
glycan array binding signal (z-score) [26]: 0.582
glycan array binding signal (z-score) [27]: 0.261
glycan array binding signal (z-score) [28]: 0.125
glycan array binding signal (z-score) [29]: -0.473
glycan array binding signal (z-score) [30]: -0.555
glycan array binding signal (z-score) [31]: -0.433
glycan array binding signal (z-score) [32]: 0.315
glycan array binding signal (z-score) [33]: 0.422
glycan array binding signal (z-score) [34]: 0.153
glycan array binding signal (z-score) [35]: 2.34
glycan array binding signal (z-score) [36]: -0.322
glycan array binding signal (z-score) [37]: 0.194
